# Test results published in PubChem BioAssay (NCATS).
# Values joined by “and” are separate entries in the source; they are usually repeats but may differ in a detail not shown here. Identical values can stand only once. This list was built around the results that the source calls inconclusive (neither active nor inactive); the mix of calls is not that of the screen. For some assays here: Potencies beside an inconclusive call are fits to weak or partial responses and may not hold up. Active and inactive are the calls of the source. Unless noted, calls follow the shape of the dose curve; as a rule, active = well fitted curve in the direction sought with a large enough effect; inconclusive = small, poorly fitted or top-dose-only effect, or another doubt; inactive = no such curve, though single readings can be large; an effect the other way counts as inactive or inconclusive.
# Legend:
# [1] = Cytometry Cell-Based qHTS for Inhibitors of the mTORC1 Signaling Pathway in MEF cells (AID 2668); settings: mTORC1 pathway readout; series mostly up to 38.3 µM;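 as to activity change, negative = inhibition: Tsc2-/- p53-/- mouse embryonic fibroblasts stably re-expressing wild-type Tsc2; percent cells positive for phospho-rpS6 Ser235/236 relative to propidium iodide stain; plate controls were DMSO wells for no effect and 7.5 nM rapamycin control wells for full effect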
# Method in brief: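 Read-out: phospho-rpS6 Ser235/236 immunofluorescence normalized to propidium iodide intensity, scored as % active cells against a rapamycin (7.5 nM) threshold. Cells: Tsc2-/-, p53-/- MEFs stably expressing WT Tsc2, compound-treated 24 hrs at 37 degree Celsius.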
# [2] = biological target: ATP-dependent 6-phosphofructokinase (Trypanosoma brucei brucei) (UniProt O15648); test: qHTS Validation Assay to Find Inhibitors of T. brucei phosphofructokinase (AID 485368); settings: T. brucei PFK enzyme assay, qHTS 7-point titration; activity change, negative = inhibition: at 57.5 µM (top of the series); series mostly up to 57.5 µM
# Chain of UniProt O15648 (O15648 whole entry, looked up): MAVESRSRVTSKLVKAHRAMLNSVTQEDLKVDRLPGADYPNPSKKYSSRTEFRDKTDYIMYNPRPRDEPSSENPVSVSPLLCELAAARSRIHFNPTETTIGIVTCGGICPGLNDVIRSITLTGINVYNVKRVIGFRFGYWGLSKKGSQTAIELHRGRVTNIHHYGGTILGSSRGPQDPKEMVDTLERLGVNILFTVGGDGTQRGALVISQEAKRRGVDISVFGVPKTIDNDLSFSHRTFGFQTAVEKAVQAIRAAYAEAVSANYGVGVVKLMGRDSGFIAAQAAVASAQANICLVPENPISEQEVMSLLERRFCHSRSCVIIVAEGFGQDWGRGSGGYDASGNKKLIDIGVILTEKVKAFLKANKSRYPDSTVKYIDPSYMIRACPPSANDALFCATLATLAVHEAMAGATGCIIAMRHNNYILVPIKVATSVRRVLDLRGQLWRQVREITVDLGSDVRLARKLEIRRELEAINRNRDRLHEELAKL
# Method in brief: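 Compounds (up to 57 uM, titration series) were pinned into substrate buffer, then 1.25 nM PFK added; after 45 min at room temperature, ADP product was quantified by ADP-Glo luminescence and concentration-response curves fitted.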
# [3] = Quantitative high throughput screen for delayed death inhibitors of the malarial parasite plastid, 96 hour incubation (AID 488745); settings: Plasmodium falciparum growth; series mostly up to 28.7 µM; also: nearly all actives have a fitted effect of over 70% in size
# Method in brief: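 Growth of reporter-bearing P. falciparum in red cells is measured after 96 h with compound, covering two erythrocytic cycles. Luminescence from the integrated luciferase serves as the growth signal.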
# [4] = Cytometric Cell-Based qHTS for Inhibitors of the mTORC1 Signaling Pathway in MEF (Tsc2-/-, p53-/-) Cells (AID 2660); settings: mTORC1 pathway cytometry; series mostly up to 38.3 µM;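 as to activity change, negative = inhibition: Tsc2 and p53 null MEFs carrying empty vector with compound for 24 h; percent of cells above a phospho-rpS6 to PI ratio cutoff in each well; plate controls were DMSO for no effect and rapamycin for full effect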
# Method in brief: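 Readout: Alexa-488 phospho-rpS6 (Ser235/236) intensity divided by PI intensity, thresholded against 7.5 nM rapamycin wells and reported as % positive cells. PI cell count served as the viability measure. Compound exposure was 24 hrs at 37 degree Celsius.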
# [5] = High Content Imaging Cell-Based qHTS for Inhibitors of the mTORC1 Signaling Pathway in MEF (Tsc2-/-, p53-/-) Cells (AID 2666);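 also: percent of cells scored positive for phospho-rpS6 Ser235/236 immunostaining by imaging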
# Method in brief: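 Cells were plated, dosed with compound after 24 hrs, and incubated another 24 hrs at 37 degree Celsius. Fixed cells were immunostained for phospho-rpS6 Ser235/236 and counterstained, and the normalized signal was scored as % active cells against rapamycin and DMSO controls.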
# [6] = qHTS Validation Assay to Find Inhibitors of Chronic Active B-Cell Receptor Signaling (AID 485345; active = well fitted curve in the direction sought with a large enough effect in the main read-out, with a control signal flat, not every such curve was filed as active; inconclusive = small, poorly fitted or top-dose-only effect, or effect the other way, or a change in a side signal; inactive = no such curve, though single readings can be large or run the other way;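 as to activity change: 0% = untreated basal cells and 100% = 10 µM MG-132 proteasome inhibitor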); settings: ABC-DLBCL cells, chronic BCR signaling reporter; activity change: CBG luciferase, at 46.1 µM (top of the series)
# Method in brief: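 Read-out: ratio of filter-corrected green (IkappaBalpha fusion) to red (native) luciferase signal in doxycycline-induced TMD8 cells after 4 h at 37C. Titration spanned 46 uM–3 nM; Data were normalised to basal cells and 10 uM MG-132 wells.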
# [7] = Quantitative high throughput screen for delayed death inhibitors of the malarial parasite plastid, 48 hour incubation (AID 488752); settings: Plasmodium falciparum growth; series mostly up to 28.7 µM; also: nearly all actives have a fitted effect of over 65% in size
# Method in brief: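 One parasite generation (48 h, 37 C, 5% CO2) of luciferase-reporter P. falciparum in erythrocytes is run with test compound; decreased luminescence indicates inhibited growth.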
# [8] = Validation screen for small molecules that induce DNA re-replication in MCF 10A normal breast cells (AID 463097); settings: MCF 10A cells, DNA re-replication phenotype imaging; series mostly up to 46.1 µM; also: nearly all actives have a fitted effect of over 60% in size
# Method in brief: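 250 MCF 10A cells/well; compound pin-transferred; 48 hr, 37 C, 5% CO2; Hoechst 40 min; imaged 405/500-530 nm. Hits = more high-intensity nuclei.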
# [9] = biological target: Chromobox protein homolog 1 (Homo sapiens) (UniProt P83916); test: qHTS Validation Assay for Inhibitors of HP1-beta Chromodomain Interactions with Methylated Histone Tails (AID 488953); settings: HP1-beta chromodomain / methylated histone peptide binding assay; series mostly up to 114 µM; also: nearly all actives have a fitted effect of over 50% in size
# Chain of UniProt P83916 (P83916 whole entry, looked up): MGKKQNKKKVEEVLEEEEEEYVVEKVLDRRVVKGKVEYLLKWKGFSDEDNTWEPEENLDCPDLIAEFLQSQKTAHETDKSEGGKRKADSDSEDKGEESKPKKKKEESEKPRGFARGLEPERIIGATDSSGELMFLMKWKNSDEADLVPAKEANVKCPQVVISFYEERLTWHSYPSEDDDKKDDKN
# Method in brief: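 Measured as loss of AlphaScreen luminescence from streptavidin donor and nickel acceptor beads (10 ug/mL final) bridging HP1-beta and biotin-H3(1-18)K9me3, each 50 nM. Compounds met the preassembled complex for 30 min at RT.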
# [10] = biological target: Transient receptor potential cation channel subfamily V member 1 (Homo sapiens) (UniProt Q8NER1); test: HTS Assay for Compounds that Act as Enhancers of the Vanilloid Receptor 1 (AID 488979); settings: TRPV1-expressing cells, enhancer of channel activity; stimulated with capsaicin at EC20
# Chain of UniProt Q8NER1 (Q8NER1 whole entry, looked up): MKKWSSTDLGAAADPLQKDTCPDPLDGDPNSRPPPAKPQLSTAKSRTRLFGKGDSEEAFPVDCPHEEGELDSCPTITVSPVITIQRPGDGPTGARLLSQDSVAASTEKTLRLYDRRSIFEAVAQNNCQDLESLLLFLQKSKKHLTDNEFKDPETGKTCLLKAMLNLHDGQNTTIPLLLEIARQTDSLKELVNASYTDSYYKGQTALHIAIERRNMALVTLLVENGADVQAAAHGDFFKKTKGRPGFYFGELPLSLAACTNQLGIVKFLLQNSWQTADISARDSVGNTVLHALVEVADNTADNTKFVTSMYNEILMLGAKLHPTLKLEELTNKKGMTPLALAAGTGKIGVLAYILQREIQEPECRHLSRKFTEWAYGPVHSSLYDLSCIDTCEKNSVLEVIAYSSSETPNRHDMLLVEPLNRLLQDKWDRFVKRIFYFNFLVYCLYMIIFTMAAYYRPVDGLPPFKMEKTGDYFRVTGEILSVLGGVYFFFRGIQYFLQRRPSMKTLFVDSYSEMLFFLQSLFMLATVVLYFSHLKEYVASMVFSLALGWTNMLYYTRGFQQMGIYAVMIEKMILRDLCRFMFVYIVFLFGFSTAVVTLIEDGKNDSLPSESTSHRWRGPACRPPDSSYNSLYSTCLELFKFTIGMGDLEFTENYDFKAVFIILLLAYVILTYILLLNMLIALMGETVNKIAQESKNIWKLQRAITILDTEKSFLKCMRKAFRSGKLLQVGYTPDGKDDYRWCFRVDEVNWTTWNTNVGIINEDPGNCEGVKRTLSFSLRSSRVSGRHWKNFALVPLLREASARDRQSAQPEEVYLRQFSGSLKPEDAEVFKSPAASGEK
# Method in brief: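 Calcium influx kinetics via Fluo-8 (480/520 nm) in TRPV1-expressing cells, 2000/well cultured overnight at 35.5C. Compound-alone read 3 min (agonist phase), followed by EC20 capsaicin challenge for 2 min (enhancer phase).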
# [11] = biological target: Thioredoxin reductase 1, cytoplasmic (Rattus norvegicus) (UniProt O89049); test: qHTS Assay for Substrates of Mammalian Selenoprotein Thioredoxin Reductase 1 (TrxR1) (AID 488772); settings: purified TrxR1, NADPH consumption substrate assay;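 also: NADPH fluorescence in the first read after selenite addition and not the 8 min delta; a drop in NADPH fluorescence below the no-compound background marks a TrxR1 substrate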
# Chain of UniProt O89049 (O89049 whole entry, looked up): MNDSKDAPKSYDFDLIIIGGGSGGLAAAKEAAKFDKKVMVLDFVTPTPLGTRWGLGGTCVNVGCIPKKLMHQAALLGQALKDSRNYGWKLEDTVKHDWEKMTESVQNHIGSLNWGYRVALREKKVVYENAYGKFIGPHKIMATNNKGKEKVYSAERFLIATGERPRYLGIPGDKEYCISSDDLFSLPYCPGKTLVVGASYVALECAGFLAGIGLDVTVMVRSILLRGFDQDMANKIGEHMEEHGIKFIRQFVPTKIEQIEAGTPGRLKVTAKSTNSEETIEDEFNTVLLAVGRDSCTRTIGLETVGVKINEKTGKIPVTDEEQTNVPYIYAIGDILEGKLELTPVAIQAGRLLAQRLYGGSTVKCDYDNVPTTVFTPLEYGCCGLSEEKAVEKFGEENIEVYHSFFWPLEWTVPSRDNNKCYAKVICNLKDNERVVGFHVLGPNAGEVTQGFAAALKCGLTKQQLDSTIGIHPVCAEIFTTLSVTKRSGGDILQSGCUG
# Method in brief: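 Quantitative HTS in Tris-HCl buffer at pH 7.5 with EDTA and Tween-20, using rat TrxR1, 400 uM NADPH and 400 uM selenite (final). A fall in initial NADPH fluorescence relative to background marked substrate behaviour.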
# [12] = biological target: DNA repair nuclease/redox regulator APEX1 (Homo sapiens) (UniProt P27695); test: Confirmation qHTS Assay for Inhibitors of the Human Apurinic/apyrimidinic Endonuclease 1 (APE1) (AID 2572); settings: purified APE1, fluorogenic abasic-site DNA cleavage; series mostly up to 57.1 µM; also: nearly all actives have a fitted effect of over 30% in size
# Chain of UniProt P27695 (P27695 whole entry, looked up): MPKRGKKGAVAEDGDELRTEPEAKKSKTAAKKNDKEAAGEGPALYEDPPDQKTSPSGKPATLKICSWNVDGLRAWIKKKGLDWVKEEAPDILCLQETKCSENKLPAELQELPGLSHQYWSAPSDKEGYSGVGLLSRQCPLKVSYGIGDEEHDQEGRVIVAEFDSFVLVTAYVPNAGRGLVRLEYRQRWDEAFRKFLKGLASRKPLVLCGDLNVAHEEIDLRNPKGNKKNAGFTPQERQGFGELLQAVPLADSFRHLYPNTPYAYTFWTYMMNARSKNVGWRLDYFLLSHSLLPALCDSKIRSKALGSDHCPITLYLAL
# Method in brief: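 15 min RT compound–APE1 preincubation → add 50 nM final THF-abasic TAMRA/BHQ-2 dsDNA → immediate kinetic read, 3 × 60 s, Ex 525/Em 598 → Δ fluorescence (read 3 − read 1).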
# [13] = biological target: DNA repair nuclease/redox regulator APEX1 (Homo sapiens) (UniProt P27695); test: qHTS FP-Based Assay for Inhibitors of the Human Apurinic/apyrimidinic Endonuclease 1 (APE1) (AID 2573); settings: APE1 binding to TAMRA-labelled double-stranded DNA, fluorescence polarization displacement; series mostly up to 57.1 µM
# [14] = biological target: Ubiquitin carboxyl-terminal hydrolase 2 (Homo sapiens) (UniProt O75604); test: qHTS Validation Assay for Inhibitors of Ubiquitin-specific Protease USP2a Using CHOP2 as the Reporter (AID 463106); settings: USP2a cleavage of CHOP2 reporter, enzymatic
# Chain of UniProt O75604 (O75604 whole entry, looked up): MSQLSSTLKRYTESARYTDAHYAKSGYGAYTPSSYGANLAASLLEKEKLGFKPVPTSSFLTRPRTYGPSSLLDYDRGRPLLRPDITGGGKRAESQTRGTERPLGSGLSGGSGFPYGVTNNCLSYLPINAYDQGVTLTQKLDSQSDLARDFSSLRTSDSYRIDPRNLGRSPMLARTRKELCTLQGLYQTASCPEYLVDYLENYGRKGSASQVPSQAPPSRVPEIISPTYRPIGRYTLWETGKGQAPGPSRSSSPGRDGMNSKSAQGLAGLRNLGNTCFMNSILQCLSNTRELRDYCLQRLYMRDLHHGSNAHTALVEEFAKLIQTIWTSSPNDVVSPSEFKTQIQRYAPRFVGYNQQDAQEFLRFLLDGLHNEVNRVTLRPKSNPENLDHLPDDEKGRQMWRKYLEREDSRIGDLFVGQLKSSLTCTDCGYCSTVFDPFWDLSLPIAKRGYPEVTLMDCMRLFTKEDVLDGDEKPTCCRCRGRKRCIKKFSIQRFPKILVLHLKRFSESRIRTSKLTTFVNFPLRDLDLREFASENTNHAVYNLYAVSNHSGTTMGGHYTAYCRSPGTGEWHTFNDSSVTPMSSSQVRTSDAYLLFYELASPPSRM
# Method in brief: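 10nM USP2 core + cpd, 30min RT; add 25nM Ub-CHOP2/25nM substrate; 60min RT; FI 485/531nm. Buffer Tris pH 8.0, CaCl2, BME, CHAPS. Norm. to NEM = 100% inhibition; time-zero read flags fluorescent artifacts.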
# Potency is read from the fitted curve at half-maximal effect; tags tell the direction and shape of the fitted curve or compound fluorescence and quenching.
smiles,measurement,setting,value
O=C(CCCN1CCC(O)(c2cccc(C(F)(F)F)c2)CC1)c1ccc(F)cc1,Potency,[1],active: 13.1 µM
same,Potency,[2],"inconclusive: 8.49 µM [falling, single point]"
same,Potency,[3],active: 9.28 µM
CNCCC=C1c2ccccc2CCc2ccccc21,Potency,[4],"inconclusive: 23.3 µM [falling, single point]"
same,Potency,[5],"inconclusive: 26.1 µM [falling, single point]"
same,Potency,[1],"inconclusive: 23.3 µM [falling, single point]"
same,activity change,[6],inconclusive: 2.7%
same,Potency,[2],inactive
same,Potency,[3],"inconclusive: 18.5 µM [inhibitor, single point]"
same,Potency,[7],"inconclusive: 18.5 µM [inhibitor, partial curve, poor fit]"
COC(=O)Nc1nc2ccc(C(=O)c3cccs3)cc2[nH]1,Potency,[4],"inconclusive: 0.0927 µM [falling, full curve, poor fit]"
same,Potency,[1],"inconclusive: 0.147 µM [falling, full curve, poor fit]"
same,Potency,[8],active: 0.158 µM
same,Potency,[2],"inconclusive: 37.9 µM [activator, single point]"
same,Potency,[3],"inconclusive: 2.62 µM [activator, full curve]"
same,Potency,[7],"inconclusive: 2.94 µM [activator, full curve, poor fit]"
COCC(=O)O[C@]1(CCN(C)CCCc2nc3ccccc3[nH]2)CCc2cc(F)ccc2[C@@H]1C(C)C,Potency,[4],"inconclusive: 18.5 µM [falling, single point]"
same,Potency,[5],"inconclusive: 18.5 µM [falling, single point]"
same,Potency,[1],"inconclusive: 13.1 µM [falling, single point]"
same,Potency,[8],"inconclusive: 31.6 µM [activator, single point]"
same,Potency,[3],"inconclusive: 2.62 µM [inhibitor, full curve, poor fit]"
same,Potency,[9],"inconclusive: 44.7 µM [inhibitor, partial curve]"
CCOC(=O)C1=C(C)NC(C)=C(C(=O)OC)C1c1cccc([N+](=O)[O-])c1 (centres undefined),Potency,[1],"inconclusive: 26.1 µM [falling, single point]"
same,Potency,[8],"inconclusive: 10 µM [activator, single point]"
same,Potency,[6],active: 9.2 µM
same,Potency,[2],"inconclusive: 37.9 µM [falling, single point]"
same,Potency,[3],"inconclusive: 11.7 µM [inhibitor, single point]"
same,Potency,[7],"inconclusive: 8.28 µM [inhibitor, partial curve]"
same,Potency,[9],"inconclusive: 50.1 µM [inhibitor, partial curve]"
CN(C)CCCN1c2ccccc2Sc2ccc(Cl)cc21,Potency,[1],"inconclusive: 26.1 µM [falling, single point]"
same,Potency,[8],"inconclusive: 31.6 µM [activator, single point]"
same,Potency,[3],"inconclusive: 18.5 µM [inhibitor, single point]"
same,Potency,[7],"inconclusive: 13.1 µM [inhibitor, single point]"
same,Potency,[9],"inconclusive: 50.1 µM [inhibitor, partial curve]"
Clc1ccc2c(c1)C(N1CCNCC1)=Nc1ccccc1O2,Potency,[4],"inconclusive: 26.1 µM [falling, single point]"
same,Potency,[1],"inconclusive: 23.3 µM [falling, single point]"
same,Potency,[2],"inconclusive: 37.9 µM [activator, partial curve, poor fit]"
same,Potency,[3],"inconclusive: 18.5 µM [inhibitor, single point]"
same,Potency,[7],"inconclusive: 10.4 µM [inhibitor, single point]"
same,Potency,[9],"inconclusive: 50.1 µM [inhibitor, partial curve]"
same,Potency,[10],"inconclusive: 22.4 µM [activator, single point]"
OCCN1CCN(CCCN2c3ccccc3C=Cc3ccccc32)CC1,Potency,[4],inactive
same,Potency,[1],inactive
same,Potency,[8],inactive
same,Potency,[2],"inconclusive: 8.49 µM [activator, single point]"
same,Potency,[7],"inconclusive: 10.4 µM [inhibitor, single point] and inconclusive: 18.5 µM [inhibitor, single point]"
same,Potency,[11],"inconclusive: 8.44 µM [inhibitor, single point]"
same,Potency,[9],"inconclusive: 79.4 µM [inhibitor, single point]"
same,Potency,[10],"inconclusive: 31.6 µM [activator, single point]"
CC(=O)[C@]1(O)Cc2c(O)c3c(c(O)c2[C@@H](O[C@H]2C[C@H](N)[C@H](O)[C@H](C)O2)C1)C(=O)c1ccccc1C3=O,Potency,[12],active: 15.8 µM
same,Potency,[13],active: 2.82 µM
same,Potency,[4],"inconclusive: 11.7 µM [falling, partial curve, poor fit]"
same,Potency,[5],active: 2.33 µM
same,Potency,[1],"inconclusive: 10.4 µM [falling, partial curve, poor fit]"
same,Potency,[14],"inconclusive: 16.5 µM [fluorescent, partial curve]"
same,activity change,[6],inconclusive: 66.4%
same,Potency,[2],"inconclusive: 30.1 µM [activator, single point]"
same,Potency,[3],active: 3.29 µM
same,Potency,[7],active: 3.7 µM
